Measured values taken from PubChem BioAssay AID1030 (National Center for Advancing Translational Sciences (NCATS), 2008).
Values joined by “and” are separate entries in the source; they are usually repeats but may differ in a detail not shown here. Equal values may be shown once. The campaign covered roughly 220,000 compounds. About 16,000 (7.3%) were called active. The inconclusive results got no clear call from the source; some entries with a clear call stand among them for comparison. Calls come from the whole dose curve; as a rule, active = well fitted inhibition curve with a large enough effect (not every such curve was filed as active); inconclusive = small, poorly fitted or top-dose-only effect, or another doubt; inactive = no such curve, though single readings can be large or run the other way. Where the call is inconclusive, the potency comes from a doubtful curve fit.
Potency is the fitted concentration of half-maximal effect; tags give direction and shape of the fitted curve.
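Throughout, for activity, negative = inhibition: plate controls were no enzyme wells and a reference inhibitor.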

Each compound was assayed against Aldehyde dehydrogenase 1A1 (Homo sapiens) (UniProt P00352) (assay: qHTS Assay for Inhibitors of Aldehyde Dehydrogenase 1 (ALDH1A1)). Details: Purified ALDH1A1, NADH fluorescence, propionaldehyde substrate; series mostly up to 75.3 µM.
Chain of UniProt P00352 (P00352 whole entry, looked up): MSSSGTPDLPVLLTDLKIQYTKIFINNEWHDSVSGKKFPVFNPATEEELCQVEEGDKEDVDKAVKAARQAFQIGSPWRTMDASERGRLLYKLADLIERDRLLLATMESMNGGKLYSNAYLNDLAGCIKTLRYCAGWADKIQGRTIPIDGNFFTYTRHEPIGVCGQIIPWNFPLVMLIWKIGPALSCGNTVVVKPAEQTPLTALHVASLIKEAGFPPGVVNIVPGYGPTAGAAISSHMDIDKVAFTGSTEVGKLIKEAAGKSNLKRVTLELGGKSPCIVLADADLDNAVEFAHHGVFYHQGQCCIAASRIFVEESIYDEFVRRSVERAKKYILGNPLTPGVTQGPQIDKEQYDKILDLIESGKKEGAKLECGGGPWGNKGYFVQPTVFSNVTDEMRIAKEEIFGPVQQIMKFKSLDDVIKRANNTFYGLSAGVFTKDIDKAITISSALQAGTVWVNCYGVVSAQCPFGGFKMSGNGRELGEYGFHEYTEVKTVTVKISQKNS
With COc1cccc(Nc2nc(-c3sc(NC(=O)c4ccco4)nc3C)cs2)c1 the Potency was inconclusive: 35.5 µM [inhibitor, single point]. In the case of O=C(O)C1Cc2ccccc2CN1S(=O)(=O)/C=C/c1ccccc1 (centres undefined), the Potency is reported as inconclusive: 35.5 µM [inhibitor, single point]. With Cc1cc(NC(=O)CSc2nnnn2-c2ccc(C)c(C)c2)no1 the Potency was inconclusive: 3.16 µM [inhibitor, full curve]. CC1(C)S[C@@H]2[C@H](NC(=O)Cc3ccccc3)C(=O)N2[C@@H]1C(=O)O was tested, and the activity, negative = inhibition was inactive: 9.25% [at 13.5 µM]. With O=C(Cc1cccs1)NNC(=S)NCc1ccco1 the Potency was inconclusive: 39.8 µM [inhibitor, single point]. In the case of COc1ccc(CN2C(=O)c3ccccc3C(/C=N\OCc3ccc(C)cc3)C2=O)cc1 (centres undefined), the Potency is reported as “inactive”. In the case of COC(=O)c1ccc(NC(=O)CN(c2ccc3c(c2)OCO3)S(C)(=O)=O)cc1, the Potency is reported as “inactive”. With CN(C)c1cccc(O)c1 the Potency was active: 8.91 µM. With CCOc1ccc(NC(=O)CCN2CCCCC2)cc1 the Potency was “inactive”. Cc1cc(C)c(C#N)c(Nc2ccc3c(c2)OCCO3)n1 was tested, and the Potency was inconclusive: 39.8 µM [inhibitor, single point]. For CCCCCCCCc1ccc(-c2ccc(C(=O)O)cc2)cc1, the Potency was inconclusive: 23.8 µM [inhibitor, partial curve]. COc1ccc(S(=O)(=O)c2ccc(OC)c(OC)c2)cc1OC was tested, and the Potency was “inactive”. S=c1nc(-c2sccc2OCc2ccc(Cl)cc2Cl)[nH][nH]1 was tested, and the Potency was “inactive”. For CCN1CC(CN(C)Cc2nc(-c3ccc(OC)c4ccccc34)oc2C)CC1=O (centres undefined), the Potency was inconclusive: 35.5 µM [inhibitor, partial curve]. In the case of N#C/C(=N\Nc1cccc([N+](=O)[O-])c1)C(=O)c1ccc(Br)cc1, the Potency is reported as active: 22.4 µM. With CC(=O)NC/C(C)=N\Nc1ccc([N+](=O)[O-])cc1 the Potency was inconclusive: 44.7 µM [inhibitor, single point]. COCCCNS(=O)(=O)c1ccc(S(=O)(=O)N2CCCC2)cc1 was tested, and the Potency was inconclusive: 28.2 µM [inhibitor, single point]. In the case of O=C1CC[C@@]23CCCN2C(=O)CCCC3C1 (some centres undefined), the Potency is reported as “inactive”. CCn1c(SCC(=O)Nc2ccc(N(C)C)cc2)nnc1-c1cccc(C)c1 was tested, and the Potency was inconclusive: 25.1 µM [inhibitor, single point]. In the case of CSc1nc(C)cc(OCC#N)n1, the Potency is reported as inconclusive: 39.8 µM [inhibitor, single point]. CCc1cccc(CC)c1NC(=S)NCC(c1cccnc1)N(C)C (centres undefined) was tested, and the Potency was “inactive”. For O=C(NCc1ccc2c(c1)OCO2)c1nn(-c2ccccc2)c(=O)c2ccccc12, the Potency was active: 5.62 µM. In the case of O=C(COC(=O)c1cccc(NS(=O)(=O)c2ccc(F)c(F)c2)c1)NC(=O)NC1CCCCC1, the Potency is reported as inconclusive: 39.8 µM [inhibitor, single point]. O=C(/C=C/c1ccc(Br)cc1)NC(=S)N1CCOCC1 was tested, and the Potency was inconclusive: 25.1 µM [inhibitor, single point]. With Cc1nn(CCC#N)c(N)c1C1(O)C(=O)Nc2c(Cl)cc(Cl)cc21 (centres undefined) the Potency was active: 3.98 µM. CC(C)CCN(CC(=O)NC(C)(C)C)C(=O)C(=O)Nc1ccc2c(c1)OCCO2 was tested, and the Potency was “inactive”. With CCO/C=C1\C(=O)N(c2ccc(OCC)cc2)C(=O)c2ccccc21 the Potency was inconclusive: 23.8 µM [inhibitor, partial curve]. In the case of CCCc1cc(=O)n2[nH]c(-c3cc(OC)c(OC)c(OC)c3)nc2n1, the Potency is reported as inconclusive: 28.2 µM [inhibitor, single point]. In the case of Cc1cc(C(=O)COC(=O)C2=NNC(=O)CC2)c(C)n1-c1ccccc1, the Potency is reported as active: 15.8 µM. COc1ccc(C(=O)C2CCCN(C(=O)C3=CCCC3)C2)c(C)c1 (centres undefined) was tested, and the Potency was inconclusive: 25.1 µM [inhibitor, partial curve]. COc1ccc(C)cc1NC(=S)N1CCN(c2ccccn2)CC1 was tested, and the Potency was inconclusive: 35.5 µM [inhibitor, single point]. For CCN(c1ccc(C)c(C)c1)S(=O)(=O)c1c(C)[nH]c(=O)[nH]c1=O, the Potency was “inactive”. COC(=O)C1=C(C)NC(=O)NC1c1ccco1 (centres undefined) was tested, and the Potency was “inactive”. In the case of CN=Cc1c(NC)nc2c(C)cccn2c1=O, the Potency is reported as inconclusive: 35.5 µM [inhibitor, single point]. Cc1cccc(C)c1-n1c(C)nn(CC#N)c1=O was tested, and the Potency was “inactive”. For CCCCCCn1c(=O)[nH]c2nc3cc(N)ccc3nc2c1=O, the Potency was “inactive”. With COc1ccccc1CNC(=O)C1CCN(Cc2nc(-c3cccc(Cl)c3)oc2C)CC1 the Potency was “inactive”. For COC(=O)c1cc(CSc2nnc(-c3ccccc3)c(-c3ccccc3)n2)oc1C, the Potency was active: 15.8 µM. Cc1noc(C)c1-c1nc(N(C)C)c2ccccc2n1 was tested, and the Potency was inconclusive: 39.8 µM [inhibitor, single point]. For Cc1cccc(-c2nnc(SCC#N)n2-c2cccc(Cl)c2)c1, the Potency was inconclusive: 17.8 µM [inhibitor, partial curve]. With COC(=O)CSc1nnc(C)n1-c1ccc(C)cc1 the Potency was “inactive”. COc1ccc(S(=O)(=O)N2c3ccccc3OCC2C(C)(C)C)cc1 (centres undefined) was tested, and the Potency was “inactive”. With Cc1cc(NC(=O)CCCN2C(=O)c3cccc4cccc(c34)C2=O)no1 the Potency was inconclusive: 35.5 µM [inhibitor, single point]. For O=C(N/N=C/c1ccc[nH]1)c1cc(-c2cccs2)nc2ccccc12, the Potency was active: 15.8 µM. With CSc1cc(-c2ccccc2)n(Cc2ccccc2Cl)c(=O)c1C#N the Potency was inconclusive: 39.8 µM [inhibitor, single point]. In the case of CCNC(=O)Nc1ccc(OC)cc1OC, the Potency is reported as “inactive”. CC1(C)CC(=O)c2c(oc3cc(O)c(O)cc23)C1 was tested, and the Potency was active: 22.4 µM and active: 2 µM. For COc1ccc(C)cc1-n1c(-c2ccncc2)n[nH]c1=S, the Potency was inconclusive: 35.5 µM [inhibitor, single point]. COc1ccc(-c2c(C)oc3c(CN4CCN(C)CC4)c(O)ccc3c2=O)cc1 was tested, and the Potency was inconclusive: 12.6 µM [inhibitor, partial curve]. With CC(C)CN(C(=O)COC(=O)c1cc2ccccc2oc1=O)C1CCS(=O)(=O)C1 (centres undefined) the Potency was inconclusive: 39.8 µM [inhibitor, single point]. In the case of O=c1ccc2ccc(O)cc2o1, the Potency is reported as inconclusive: 28.2 µM [inhibitor, partial curve]. With CC(=O)c1ccc(NC(=O)CN2C(=O)CCC2=O)cc1 the Potency was “inactive”. CC12CCC(c3c(CO)nn(-c4ccccc4)c31)C2(C)C (centres undefined) was tested, and the Potency was inconclusive: 25.1 µM [inhibitor, single point]. In the case of c1ccc(-c2c3ccccc3nc3[nH]c4ccccc4c23)cc1, the Potency is reported as inconclusive: 28.2 µM [inhibitor, partial curve] and inconclusive: 39.8 µM [inhibitor, single point]. With COc1ccc(S(=O)(=O)N2CCCC(C(=O)Nc3ccc(NC(=O)c4ccccn4)cc3)C2)cc1 (centres undefined) the Potency was inconclusive: 39.8 µM [inhibitor, single point]. In the case of O=C(NCc1ccc(F)cc1)C1CCN(S(=O)(=O)N2CCC3(CC2)OCCO3)CC1, the Potency is reported as inconclusive: 31.6 µM [inhibitor, single point]. For Cn1c(SCC(=O)Nc2nc3c(s2)CCCC3)nnc1-c1ccccc1, the Potency was “inactive”. CCOc1cccc(NC(=O)C2CCCN(S(=O)(=O)c3ccc(OC)cc3)C2)c1 (centres undefined) was tested, and the Potency was inconclusive: 20 µM [inhibitor, single point]. With Cc1cc(O)c(-c2cc(O)c(C)cc2O)cc1O the Potency was inconclusive: 20 µM [inhibitor, partial curve] and inconclusive: 3.16 µM [inhibitor, partial curve]. For N#Cc1c(NC(=O)C2CC2)sc2c1CCCCC2, the Potency was inconclusive: 35.5 µM [inhibitor, single point]. For COc1ccc(S(=O)(=O)NC(CC(=O)NCc2ccccc2OC)c2ccco2)cc1 (centres undefined), the Potency was active: 10 µM. O=C(NCC1CCCO1)c1cc(-c2ccco2)nc2ccccc12 (centres undefined) was tested, and the Potency was inconclusive: 28.2 µM [inhibitor, partial curve]. With O=C1c2ccccc2-c2nnc(-c3ccc(O)cc3)cc21 the Potency was “inactive”. For COc1cccc(Cn2c(=O)c(-c3cccs3)nc3cnc(N4CCNCC4)nc32)c1, the Potency was inconclusive: 28.2 µM [inhibitor, partial curve]. With Cc1ccc(C(=O)NNC(=O)CSc2nc(N)cc(N)n2)cc1 the Potency was “inactive”. In the case of O=C(COC(=O)CCCN1C(=O)c2cccc3cccc(c23)C1=O)Nc1cccc(Br)c1, the Potency is reported as inconclusive: 37.7 µM [inhibitor, single point]. In the case of CCCCCC[C@@H]([C@@H](C)O)n1cnc2c(N)ncnc21, the Potency is reported as “inactive”. In the case of COC(=O)C1=NN(c2cccc(C)c2)C2C(=O)N(c3ccccc3OC)C(=O)C12 (centres undefined), the Potency is reported as inconclusive: 35.5 µM [inhibitor, single point]. In the case of O=C(CSc1nnc(SCC(=O)c2ccco2)s1)c1ccco1, the Potency is reported as inconclusive: 35.5 µM [inhibitor, partial curve]. In the case of COc1ccc(-c2cc3ccccc3n2CC(O)CN2CCOCC2)cc1 (centres undefined), the Potency is reported as inconclusive: 28.2 µM [inhibitor, single point]. With c1ccc2c(c1)nnn2-c1ncnc2sccc12 the Potency was inconclusive: 35.5 µM [inhibitor, single point]. With CCCn1c(-c2ccc(F)cc2)nc2c(N3CCCN(Cc4ccccc4)CC3)nc(C)nc21 the Potency was inconclusive: 35.5 µM [inhibitor, single point]. For Cc1ccc(CNC(=O)CS(=O)Cc2nc(-c3cccs3)oc2C)cc1 (centres undefined), the Potency was inconclusive: 39.8 µM [inhibitor, single point]. For FC(F)(F)c1cc(-c2ccccc2)nc(NCc2cccs2)n1, the Potency was inconclusive: 39.8 µM [inhibitor, single point].
